The whole screen tested about 310,000 compounds, of which about 2,200 (0.71%) showed an effect of 50% or more. The effect is printed as a negative number. This is one part of the list.
target: human ether-à-go-go-related gene (hERG) potassium channel (human, UniProt Q12809); test: primary screen, population patch clamp on CHO cells stably expressing hERG
Sequence (Q12809 whole entry, looked up): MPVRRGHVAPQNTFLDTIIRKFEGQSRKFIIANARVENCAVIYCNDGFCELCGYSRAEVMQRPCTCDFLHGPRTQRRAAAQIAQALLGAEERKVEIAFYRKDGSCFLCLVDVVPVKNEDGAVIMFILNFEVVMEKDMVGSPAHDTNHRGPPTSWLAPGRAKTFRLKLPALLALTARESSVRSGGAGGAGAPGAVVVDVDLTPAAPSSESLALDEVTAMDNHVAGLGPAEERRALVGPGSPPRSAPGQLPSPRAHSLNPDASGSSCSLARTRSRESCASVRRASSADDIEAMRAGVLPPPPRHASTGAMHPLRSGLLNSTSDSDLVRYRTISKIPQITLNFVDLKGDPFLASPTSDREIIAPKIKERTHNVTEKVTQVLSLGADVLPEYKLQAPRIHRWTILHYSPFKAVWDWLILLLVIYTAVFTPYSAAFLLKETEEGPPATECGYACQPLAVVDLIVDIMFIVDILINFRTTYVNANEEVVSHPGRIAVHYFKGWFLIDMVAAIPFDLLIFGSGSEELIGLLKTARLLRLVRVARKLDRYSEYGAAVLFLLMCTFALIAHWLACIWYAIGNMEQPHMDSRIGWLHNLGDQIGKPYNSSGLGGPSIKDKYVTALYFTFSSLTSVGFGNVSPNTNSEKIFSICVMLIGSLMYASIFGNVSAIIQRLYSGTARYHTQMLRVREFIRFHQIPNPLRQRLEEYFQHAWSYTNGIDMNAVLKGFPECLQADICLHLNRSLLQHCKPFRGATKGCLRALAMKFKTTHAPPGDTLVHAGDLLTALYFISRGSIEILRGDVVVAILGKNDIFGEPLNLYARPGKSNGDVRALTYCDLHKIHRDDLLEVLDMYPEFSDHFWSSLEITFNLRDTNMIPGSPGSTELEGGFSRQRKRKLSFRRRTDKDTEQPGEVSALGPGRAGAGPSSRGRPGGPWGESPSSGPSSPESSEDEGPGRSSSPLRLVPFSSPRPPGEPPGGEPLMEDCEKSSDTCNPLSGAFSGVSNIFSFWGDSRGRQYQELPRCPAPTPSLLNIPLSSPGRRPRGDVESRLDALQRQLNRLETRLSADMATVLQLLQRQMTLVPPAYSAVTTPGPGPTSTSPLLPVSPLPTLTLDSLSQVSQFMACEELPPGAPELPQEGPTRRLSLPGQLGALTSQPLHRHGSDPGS

Row | Structure (SMILES) | hERG current change (%, negative = inhibition) at 1uM [%]
1 | Cc1cnc(C(=O)OCC(=O)NC(C)C)cn1 | 6.41
2 | O=C(NC1CCCCC1)C12CC3CC(C1)CC(n1cncn1)(C3)C2 | 6.03
3 | CCc1cc(=O)oc2c(C)c(OCC(=O)NC3CC(C)(C)NC(C)(C)C3)ccc12 | 11.4
4 | COc1ccc(C(=O)NNC(=O)CSc2nnc(COc3ccccc3)n2C)cc1 | -2.95
5 | CC(C)c1ccccc1NC(=S)N1CCN(Cc2ccc3c(c2)OCO3)CC1 | 6.09
6 | O=C1CSC(c2ccc(F)cc2)N1c1nc2ccccc2s1 (stereo not drawn) | -10.6
7 | COc1ccc(S(=O)(=O)NC(CC(=O)NCc2ccco2)c2ccco2)cc1 (stereo not drawn) | 8.76
8 | Cc1cccc(C)c1OCCCCn1cnc2ccccc2c1=O | -3.03
9 | CC12CCC(=O)N1C(C(=O)Nc1ccc(SC(F)F)cc1)CS2 (stereo not drawn) | -19.5
10 | O=C(NC1CCCCC1)c1cc(-c2ccccc2Cl)on1 | 16.5
11 | COc1ccc(C)cc1Nc1n[n+](-c2ccccc2)c(-c2ccc(OC)c(OC)c2OC)s1.[Cl-] | -43.9
12 | O=C(NCc1cccnc1)c1cnc2n(c1=O)CCS2 | 9.33
13 | COc1cc(OC)c(OC)cc1/C=N/n1c(-c2n[nH]c3c2CCC3)n[nH]c1=S | 11.3
14 | N#Cc1c(Cl)nc(SCc2ccccc2)nc1-c1ccccc1 | 10.8
15 | Cc1ccc(N2C(=O)SC(Cc3ccccc3)C2=O)cc1 (stereo not drawn) | 15.2
16 | Cn1nnnc1SCC(=O)NNC(=O)c1ccc(Cl)cc1 | -0.975
17 | CC(C)(CC(=O)O)CC(=O)N1CCCN(c2nccc(C(F)(F)F)n2)CC1 | 13.6
18 | COc1ccc(C(C)=O)cc1CSCC(=O)O | 12.9
19 | COc1ccc(CCC(=O)Nc2cc3c4c(c2)CCC(=O)N4CCC3)cc1 | 2.95
20 | CCSc1nnc(N2C(=O)CC(c3ccsc3)C3=C2CC(C)(C)CC3=O)s1 (stereo not drawn) | 8.51
21 | CC(=O)NNC(=O)N1Cc2ccccc2Oc2ccc(Cl)cc21 | 13
22 | CN1CCN(c2nc(-c3cccs3)nc3ccccc23)CC1 | -55
23 | Cc1ccc2cc(CN(c3ccc(C)c(C)c3)S(C)(=O)=O)c(=O)[nH]c2c1 | 16.6

Row | Structure (SMILES) | hERG current change (%, negative = inhibition) at 1uM [%]
24 | c1cc2cc(-c3c(-c4ccc5c(c4)OCO5)noc3-c3ccsc3)ccc2[nH]1 | 12.9
25 | C=C(C)c1cccc(C(C)(C)NC(=O)Nn2cnnc2)c1 | 9.78
26 | O=Cc1cccnc1SCc1ccccc1 | 12.7
27 | Cc1ccc(NC(=O)NCc2ccc3c(c2)OCO3)c(C)c1 | 10.8
28 | CCCCOC(=O)Cn1c(=O)n(CC(=O)OCCCC)c2ccccc21 | -1.57
29 | C/C(CCC(C)C)=N\NC(=S)Nc1cc(S(=O)(=O)N2CCOCC2)ccc1N1CCOCC1 | 4.15
30 | CCN(CC)CCNC(=O)CNC(=O)c1nn(-c2ccc(OC)cc2)c(=O)c2ccccc12 | 9.31
31 | CCOc1ccc(C(C)NC(=O)Nc2ccc(F)cc2F)cc1 (stereo not drawn) | 5.38
32 | Cc1ccc(C(=O)Nc2ccc(OCc3ccccc3)cc2)s1 | 10.8
33 | O=C(NC[C@@H]1CCCO1)c1cccc2c1C(=O)c1ccc(Cl)cc1S2(=O)=O | 4.75
34 | COc1ccc2c(c1)c(C(=O)CN1CCN(C(=O)c3ccco3)CC1)c(C)n2C | 12.7
35 | Cc1ccc(C)c(NS(=O)(=O)c2cc(C(N)=O)ccc2C)c1 | 2.72
36 | COc1cc(NC(=O)c2ccc(COc3ccccc3Br)o2)cc(OC)c1OC | -1.71
37 | COc1ccc(C(=O)Nc2ccc3nc(N4CCN(C)CC4)cc(C)c3c2)c(OC)c1 | 13.3
38 | CN1C(=O)c2ccc(C(=O)NCc3ccco3)cc2C1=O | 13.9
39 | O=C1CN(C(=O)c2cc(Br)c(Br)s2)c2ccccc2N1 | 15.4
40 | O=[N+]([O-])c1ccn(-c2nc(-c3cccs3)cc(C(F)(F)F)n2)n1 | 12.4
41 | C/[N+]([O-])=C\CC(=O)c1ccc(-c2ccccc2)cc1 | 9.92
42 | CCOc1cc(/C=N/NC(=O)Cc2ccc(C(F)(F)F)cc2[N+](=O)[O-])c(Br)cc1OC | 10.2
43 | O=[N+]([O-])c1cc(/C=N/NC(=S)Nc2ccccc2Cl)ccc1Cl | 15.9
44 | N#C/C(=C\c1ccc(/C=C(/C#N)c2nn(CCO)c(N)c2C#N)cc1)c1nn(CCO)c(N)c1C#N | 10.1
45 | COc1ccc(NC(=O)COC(=O)CC23CC4CC(CC(C4)C2)C3)c([N+](=O)[O-])c1 | 13.4
46 | Cc1onc(C(=O)NCc2ccc(F)cc2)c1[N+](=O)[O-] | 8.32

Row | Structure (SMILES) | hERG current change (%, negative = inhibition) at 1uM [%]
47 | CC1CC(C)CN(C(=O)Cn2c(=O)oc3cc(S(=O)(=O)N4CCCC4)ccc32)C1 (stereo not drawn) | 9.47
48 | O=C(NCCCN=C1NS(=O)(=O)c2ccccc21)c1ccc(S(=O)(=O)N2CCOCC2)cc1 | 2.08
49 | CC(C)C(=O)c1cn(CC(=O)O)c2ccccc12 | 13.9
50 | N/C(=N\OC(=O)c1ccc(Cl)cc1)c1ccn[nH]1 | 13.7
51 | CC(OC(=O)c1cccc(-n2cnnn2)c1)C(=O)Nc1ccccc1F (stereo not drawn) | 13.5
52 | O=C(NC(NC(=S)Nc1c(Cl)cc(Cl)cc1Cl)C(Cl)(Cl)Cl)OCc1ccccc1 (stereo not drawn) | 7.07
53 | Cc1ccc(S(=O)(=O)N/N=C/c2cn(C)nc2C)cc1 | 4.78
54 | O=C(NCCc1ccccc1)c1ccccc1Cl | 6.87
55 | NC(=O)COC(=O)c1cccc(S(=O)(=O)N2CCN(c3ccccc3)CC2)c1 | -13.6
56 | COc1cc(CN(C(=S)NCC(=O)NC2CC2)C2CCCC2)cc(OC)c1OC | 9.89
57 | Cl.OCCNc1nc(Nc2ccc(Br)cc2)nc2ccccc12 | 2.17
58 | CCOC(=O)N1CCN(C(=O)c2ccc3c(=O)n(-c4ccc(OC)cc4OC)c(=S)[nH]c3c2)CC1 | 11.1
59 | CC(=O)c1c2c3c(cccc3n(C)c1=O)C(=O)c1ccccc1-2 | 10.4
60 | O=C(CSc1nnnn1Cc1ccccc1)NCCc1ccccc1 | 9.2
61 | O=C(NCSc1ccnc(SCNC(=O)c2ccccc2)n1)c1ccccc1 | 1.8
62 | Cc1ccc(-c2nn(C)c(=O)c3ccccc23)cc1CN1CCCCC1 | 7.16
63 | CC(=O)Nc1ncc(Cc2cccc(Cl)c2Cl)s1 | 13.8
64 | CC(=O)Nc1cccc(NS(=O)(=O)Cc2ccc(Cl)cc2)c1 | 9.85
65 | CCCCN(CC)S(=O)(=O)N1CCC(C(=O)NCc2ccc(F)cc2)CC1 | 0.175
66 | CCOCC(=O)Nc1cccc(C(=O)OCC)c1 | -4.24
67 | O=C(Nc1ccccc1F)c1cc(S(=O)(=O)N2CCCCC2)cs1 | 1.07
68 | COc1ccc(OC)c(-c2nc(C(N)=O)c3[nH]c(=O)n(-c4ccc(F)cc4)c3n2)c1 | 9.08
69 | O=C(NC1CCCCCC1)C1c2ccccc2C(=O)N1C1CC1 (stereo not drawn) | 16.7

Row | Structure (SMILES) | hERG current change (%, negative = inhibition) at 1uM [%]
70 | C=CCNC(=O)Cn1c(=O)c2c(ncn2CCC(C)C)n(Cc2ccccc2)c1=O | 13.5
71 | CCOc1ccc(CCN2CN(C3CCCCC3)CNC2=S)cc1OCC | 10.6
72 | COc1ccc(OC)c(C2=NOC(C(=O)Nc3cc(C)on3)C2)c1 (stereo not drawn) | 1.55
73 | COc1cccc(CNn2cn[nH]c2=S)c1OCc1ccccc1 | 1.76
74 | COc1ccccc1CC(=O)N1CCN(c2ccc(F)cc2)CC1 | 13.5
75 | Nn1c(SCC(=O)NC2CCS(=O)(=O)C2)nnc1-c1cccs1 (stereo not drawn) | 16.4
76 | Cc1ccc2c(c1)Oc1ccccc1C=C2C(=O)O | 8.54
77 | Cc1cccc(NC2=NC(C)(C)N=C(N)N2)c1C | 12.8
78 | Cc1cc(C)nc(N2C(=O)CC(Cc3ccc(Cl)cc3)C2=O)n1 (stereo not drawn) | 8.77
79 | CN1CCN(S(=O)(=O)c2ccc(Sc3nc4ccccc4[nH]3)c3nsnc23)CC1 | 2.69
80 | COc1cccc(-c2c(NC(=O)c3ccco3)oc3ccccc3c2=O)c1 | 9.86
81 | Nc1nc(Cl)cc(Sc2ccc3ccccc3c2)n1 | 8.82
82 | NC(=S)N/N=C/c1coc2ccc(Br)cc2c1=O | 10.6
83 | O=C(COc1ccc2c(c1)CCC2)NCc1cccc(Cl)c1 | 6.98
84 | COC(=O)CSc1nc(NC#N)nc(NC(C)(C)C)n1 | 14.3
85 | Cc1ccc(-c2csc(N3CCC(C(N)=O)CC3)n2)cc1 | 17.9
86 | NS(=O)(=O)c1ccc(N2CCOCC2)c(C(=O)NCCCSc2ccccc2)c1 | 1.07
87 | C=CCNC(=S)NC(=O)c1ccc(C)c(Br)c1 | 12.2
88 | CCOc1ccc(NC(=O)CCC(=O)N2CCSc3ccccc32)cc1 | -3.41
89 | COc1ccccc1OCCCC(=O)Nc1nccs1 | 10.7
90 | O=C1CCCC2=C1C(c1ccncc1)c1c(nc(SCc3ccccc3Cl)[nH]c1=O)N2 (stereo not drawn) | 10.5

From article PMC4336329 (PLoS ONE, 2015)
